# Data taken from PubChem BioAssay AID1240 (Sanford-Burnham Center for Chemical Genomics, 2008).
# Screen size: about 50,000 compounds; about 800 (1.6%) showed an effect of 50% or more. Some of the results follow.
# Target: Bcl-2-like protein 10 (Homo sapiens) (UniProt Q9HD36)
# Assay: Phenotype converters, Bcl-B/TR3 peptide binding displacement, primary biochemical FP (AID 1240);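 further: 0% = Bcl-B with tracer peptide and DMSO and 100% = tracer peptide lacking Bcl-B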
# Conditions: GST-Bcl-B / FITC-TR3 peptide fluorescence polarization; stronger effect = higher value; compound at 3.75 mg/L
# Chain of UniProt Q9HD36 (Q9HD36 whole entry, looked up): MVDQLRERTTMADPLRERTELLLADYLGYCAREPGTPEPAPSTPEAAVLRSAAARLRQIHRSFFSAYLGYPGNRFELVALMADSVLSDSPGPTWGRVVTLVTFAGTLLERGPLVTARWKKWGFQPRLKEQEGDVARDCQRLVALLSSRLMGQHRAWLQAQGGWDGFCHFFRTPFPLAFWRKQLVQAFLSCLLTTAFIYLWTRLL
row,SMILES,displacement
1,CCOCCOC(=O)c1cccc(NC(=O)/C=C/c2ccccc2)c1,-3.9%
2,Cc1cc(C)n(C2=NNC(n3nc(C)cc3C)=NN2)n1,1.6%
3,O=C(Nc1ccc(I)cc1Cl)c1cccc(OCc2ccccc2)c1,-4.2%
4,CC1(C)CC(=O)C2=C(C1)Nc1ccccc1NC2c1cccc(C(F)(F)F)c1 (stereo not drawn),-10.1%
5,O=C(O)C1CSC(c2ccc(Cl)c([N+](=O)[O-])c2)N1 (stereo not drawn),-0.9%
6,COc1ccc2oc(=O)c(-c3csc(Nc4ccccc4)n3)cc2c1,-13.5%
7,COc1ccc(NC(=O)C2CC2)c2ncccc12,8%
8,C=CCN1C(=O)/C(=C\c2ccc(OC)cc2)C(C(=O)OC)=C1C,1.4%
9,O=[N+]([O-])c1ccc(/C=N/Nc2nnc(-c3ccccc3)c(-c3ccccc3)n2)cc1,1.6%
10,COc1ccc(N2C(=O)c3ccccc3NC2c2ccccc2F)cc1 (stereo not drawn),11.6%
11,O=C1CCC(=O)N1c1ccc(Oc2cccc(Oc3ccc(N4C(=O)CCC4=O)cc3)c2)cc1,4.4%
12,CC1C(c2ccc(Cl)cc2)NC(c2ccc(Cl)cc2)C(C)C1(C)O (stereo not drawn),-8%
13,O=C(CN1C(=O)c2ccccc2C1=O)Nc1ccc(F)c(F)c1,9.6%
14,CSc1nc(N)c(C#N)c(-c2ccccc2)c1C#N,-11%
15,COc1ccc2oc(=O)c(C(=O)Nc3cccc(C(C)=O)c3)cc2c1,0.2%
16,O=C(O)CN1C(=O)/C(=C\c2cc([N+](=O)[O-])ccc2Cl)SC1=S,28.4%
17,COc1cc(/C=C2\SC(=S)N(c3ccc(F)cc3)C2=O)cc(OC)c1OC,3.3%
18,COc1cc(NC(=O)c2ccc3ccccc3c2)c(OC)cc1Cl,-10.9%
19,COc1cc(/C=c2\sc3nc4ccccc4n3c2=O)ccc1OS(=O)(=O)c1ccccc1[N+](=O)[O-],1.7%
20,Cc1ccc(Nc2nc3nonc3n3cnnc23)cc1C,-5.9%
21,COc1ccc2noc3c2c1C(=O)c1ccccc1-3,127%
22,N#CC1=C(N)Oc2c(ccc3ccccc23)C1c1ccc2c(c1)OCO2 (stereo not drawn),-6%

row,SMILES,displacement
1,COC(=O)c1ccc(/C=C2/SC(=S)N(CC(=O)O)C2=O)cc1,15%
2,CCOC(=O)c1c(NC(=O)Cc2ccc(OC)cc2)sc2c1CCN(C(=O)OCC)C2,-6%
3,O=C1c2ccccc2C2(c3ccc(Cl)cc3)N1CCN2C(=S)Nc1ccccc1 (stereo not drawn),-12.9%
4,CCOC(=O)c1c(NC(=O)Cn2nc(C(F)(F)F)cc2C)sc2c1CCC(C)C2 (stereo not drawn),16.8%
5,CC(C)(C)c1cc(C(=O)N/N=C/c2ccc([N+](=O)[O-])cc2)n[nH]1,-4.7%
6,COc1ccc(/C=C/C(=O)Nc2cc(C)ccc2C)cc1,17.1%
7,CCC(=O)N1CCN(CCN=CC2=C(O)CC(C)(C)CC2=O)CC1,10.3%
8,Cc1ccccc1-c1noc(-c2cccs2)n1,-5.9%
9,Nc1nnnn1/N=C/c1ccc(C=O)cc1,12.4%
10,COc1cc2c(cc1OC)-c1nnc(-c3cccs3)n1C(C)(C)C2,2.4%
11,Cc1cccc(OCCCCNC(C)(C)C)c1C,-1.1%
12,Nc1nc(Nc2ccccc2)nc(NCc2ccccc2)c1[N+](=O)[O-],4.6%
13,Cc1cccc(-n2c(C)cc(C=C3C(=O)NC(=S)NC3=O)c2C)c1,72.3%
14,COc1ccccc1NC(=O)C(=O)N/N=C/c1ccc2c(c1)OCO2,8.5%
15,c1ccc(C2CC3CC(c4ccccc4)N2O3)cc1 (stereo not drawn),1.9%
16,Cc1cc(C(=O)Nc2cccc(C)c2C)ccc1[N+](=O)[O-],15.9%
17,Cc1ccc(/C(N)=N/OC(=O)c2ccc(Br)cc2)cc1,-1.1%
18,CN(C)c1cc(N/N=C/c2ccncc2)nc(N(C)C)n1,10.6%
19,O=C(/C=C/c1ccc(-c2cccc([N+](=O)[O-])c2)o1)c1cc2ccccc2o1,119%
20,CCN(CC)c1ccc(NC(=O)c2cccnc2)cc1,18.5%
21,COC(=O)c1ccc(C2Nc3ccc4ccccc4c3C3=C2CC(C)(C)CC3=O)cc1 (stereo not drawn),23.7%
22,O=C(Nc1ccc(F)c([N+](=O)[O-])c1)c1ccc2ccccc2c1,12.9%

row,SMILES,displacement
1,CC1(C)CC(=O)C(C(C2=C(O)CC(C)(C)CC2=O)c2ccccc2Cl)C(=O)C1 (stereo not drawn),-3.4%
2,CCC(=O)Nc1sc2c(c1C(=O)Nc1ccccc1Cl)CCCC2,11.8%
3,O=C(CSc1nc2ccccc2[nH]1)c1ccc(-c2ccccc2)cc1,14.5%
4,CCOC(=O)C1=C(O)/C(=C\c2cccc([N+](=O)[O-])c2)SC1=Nc1ccc(OC)cc1,-16.3%
5,Oc1ccccc1C=Nc1ccc2c(c1)ncn2CCn1cnc2cc(N=Cc3ccccc3O)ccc21,115%
6,CCOC(=O)c1c(-c2ccc(OC)cc2)csc1NC(=O)C1CC=CCC1C(=O)O (stereo not drawn),7.1%
7,CCCOc1ccc(N2C(=O)CC(SC(N)=Nc3ccccc3)C2=O)cc1 (stereo not drawn),6.5%
8,O=C(Cc1ccccc1)Nc1nc(-c2ccc3c(c2)Cc2ccccc2-3)cs1,11%
9,CCOC(=O)CSc1nc2c(c(=O)n1-c1ccc(OC)cc1)C1(CCCCC1)Cc1ccccc1-2,-5%
10,COc1ccc(C2C(C#N)=C(N)Oc3c2sc2ccccc32)c2ccccc12 (stereo not drawn),-6.7%
11,COCCNC(=S)Nc1c(C)n(C)n(-c2ccccc2)c1=O,1.8%
12,COc1ccc(NC(=O)COc2ccc(Br)c(C)c2)cc1OC,-9.1%
13,CCS/C(=N/Nc1cccc(Cl)c1C)C(C)=O,7.3%
14,Cc1cc(NCCO)nc(-n2nc(C)cc2C)n1,12.1%
15,O=S(=O)(c1ccccc1)N1CCN(S(=O)(=O)c2ccccc2)C(O)C1O (stereo not drawn),-1.5%
16,NC(=O)c1ccccc1NC(=O)c1ccccc1[N+](=O)[O-],5%
17,CC(=O)Nc1nc2ccccc2n1Cc1ccc(C)cc1,-16.7%
18,COc1ccc(C(=O)Nc2cc(C)ccc2O)cc1,-3.2%
19,Cc1cccc(C(=O)Oc2ccc3c(C)cc(=O)oc3c2)c1,-2.9%
20,Cc1ccc(N2CC(C(=O)NCc3ccco3)CC2=O)cc1 (stereo not drawn),4%
21,CCC1=NN2C(=N)/C(=C/c3ccc(F)cc3)C(=O)N=C2S1,7.5%
22,O=C(COc1ccc2ccccc2c1)N/N=C/c1ccccc1[N+](=O)[O-],-1.9%

row,SMILES,displacement
1,COC(=O)c1ccc(N2C(=O)c3ccc(C(=O)c4ccc5c(c4)C(=O)N(c4ccc(C(=O)OC)cc4)C5=O)cc3C2=O)cc1,5.2%
2,COC(=O)CN(c1ccc(Br)cc1)S(C)(=O)=O,4.7%
3,COc1ccc(C(=O)N2CCN(C3CCN(Cc4ccccc4)CC3)CC2)cc1,-3.5%
4,Cc1cccc(-c2cc(NC(=O)COc3ccccc3)n[nH]2)c1,12.6%
5,COc1ccc(/C=C/C(=O)c2ccc(F)cc2)cc1[N+](=O)[O-],6.5%
6,C/C(=N\Nc1nc(C)cc(-c2ccccc2)n1)c1c(F)c(F)c(F)c(F)c1F,-0.6%
7,C1=C(c2ccc(C3CCCCC3)cc2)N2CCN=C2S1,-2.8%
8,CCOC(=O)c1c(NC(C)=O)sc2c1CC(C)(C)OC2,0%
9,COCc1cc(=O)n2[nH]c(-c3ccc(Cl)cc3)cc2n1,7.7%
10,CCC1=NN2C(=N)/C(=C/c3ccc(OCCOc4cccc(OC)c4)c(OC)c3)C(=O)N=C2S1,9.3%
11,Cc1ccc(-n2nc3cc(C)c(NC(=O)c4cc5ccccc5o4)cc3n2)cc1,9.1%
12,COc1ccc(S(=O)(=O)N(CC(=O)Nc2cccc(C(F)(F)F)c2)Cc2ccccc2)cc1,8.9%
13,CCOC(=O)c1c(-c2ccccc2)csc1NC(=O)c1ccc(OC(C)C)cc1,-5.9%
14,O=C(C(Sc1ccccc1)c1ccccc1)N1CCCC1 (stereo not drawn),-3%
15,COc1ccccc1/C=C/C(=O)NCC(=O)N/N=C(/C)c1ccccc1,1.7%
16,Cc1ccc(C(C)C)c(OCCNC(=O)c2cccs2)c1,-2.3%
17,C=CCN1C(=O)/C(=C\c2ccc(-c3ccc(F)cc3)o2)C(=O)NC1=S,-3.3%
18,O=C(Cc1ccccc1)NC(NC(=S)Nc1ccccc1Br)C(Cl)(Cl)Cl (stereo not drawn),-15.3%
19,O=C1NC(=S)N(c2ccc(Cl)cc2)C(=O)/C1=C\c1ccc(-c2cccc(C(=O)O)c2)o1,16%
20,COCCN1C(=O)C(=O)/C(=C(/O)c2ccccc2)C1c1ccc(Br)cc1 (stereo not drawn),-15.9%
21,N/C(=N\N=C\c1cc(Br)cc(Br)c1O)c1nonc1N,0.3%
22,CC(=O)OCC12CC=C(C)C(C1)C(c1ccccc1OC(C)=O)OC2 (stereo not drawn),-5.7%

row,SMILES,displacement
1,CN(C)c1ccc(C2C(C#N)=C(N)OC3=C2C(=O)CC(C)(C)C3)cc1 (stereo not drawn),-1.1%
2,COc1cc(/C=N/n2nnnc2N)cc(I)c1O,0.5%
3,COc1cc2c(cc1NC(=O)c1c(-c3ccccc3)noc1C)oc1ccccc12,1.8%
4,Cc1ccc(/C=C2\SC(N3CCCCCC3)=NC2=O)cc1,-19.3%
5,COCCCN1C(=O)/C(=C\c2ccccc2[N+](=O)[O-])C(C(=O)OC)=C1C,-8.8%
6,CC(C)(C)c1ccc(C2=N/C(=C\c3ccc(C#N)cc3)C(=O)O2)cc1,22.4%
7,CN(C)C(=O)c1c(NC(=O)c2ccco2)sc2c1CCCCC2,18.1%
8,CC(=O)NC12CC3(C)CC(C)(CC(O)(C3)C1)C2,-5.3%
9,Cc1cc(Cl)ccc1OC(C)C(=O)Nc1ccc(Cl)c([N+](=O)[O-])c1 (stereo not drawn),4.7%
10,O=[N+]([O-])c1ccccc1S(=O)(=O)NCCOc1ccc(Cl)cc1,10.3%
11,CCOc1cc(C(=S)N2CCCCC2)cc(Br)c1O,-4.5%
12,CSc1ccccc1N1C(=O)C2CC(C)=C(C)CC2C1=O (stereo not drawn),11.4%
13,COc1ccc(Br)cc1/C=C/C(=O)Nc1ccc(NC(=O)c2ccco2)c(OC)c1,-9.2%
14,COc1ccc(C2(C(N)=O)CCOCC2)cc1OC,3.2%
15,COc1ccc(C(=O)Oc2ccc(/C=c3/sc4nc5ccccc5n4c3=O)cc2)cc1,-4%
16,COc1ccccc1/C=N/N=C1/NC(=O)C(CC(=O)Nc2ccccc2C(F)(F)F)S1 (stereo not drawn),-16.3%
17,COc1ccc(Cl)cc1C(=O)Nc1ccc(-c2nc3ccccc3[nH]2)cc1,-1.3%
18,CCOC(=O)C1=C(N)OC2=C(C(=O)CCC2)C1c1ccccc1OCC (stereo not drawn),-5.3%
19,Oc1ccc(/C=N\N2CCN(c3ccccc3)CC2)c(O)c1,-3.2%
20,Cc1cc(C)nc(N/N=C/c2ccc(C(F)(F)F)cc2)n1,-25.1%
